Results taken from the supplement of paper PMC11417369.
± gives the standard deviation of the averaged measurements. The list shows a part of the results.

Each sequence was assayed on PfAP2-EXP AP2 domain (GST-tagged) (assay: gcPBM binding intensity (ln(normalized median fluorescence intensity)); higher = stronger DNA binding).
How it was run: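 For binding intensity, the highest Masliner-normalised natural-log median intensity across replicate spots of either probe orientation was taken. Protein bound to the array was stained with Alexa488 anti-GST antibody and scanned at 488 nm. The protein, GST-tagged P. falciparum DNA-binding domains from E. coli at about 25 μg on average, had been applied for 1 h to an Agilent 4 × 180k array of primer-extended double-stranded 36-bp intergenic genomic probes and negative controls.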

Row | Sequence | gcPBM binding intensity (ln)
1 | AAAAAAATCACATAATATACTTTATTTTATTTTGTA [GTGCAC_negctrl_site562] | 7.89 ± 0.33
2 | TATATATAGAAACACACACACACATATATATATATT [CACACA_site2539] | 8.73 ± 0.67
3 | TTATAAGATTTATGTACACACATATACACCCCTCTA [CACACA_site4562] | 8.85 ± 0.42
4 | GTAAGAAACGGACACACACACATATATATATATATA [CACACA_site4593] | 10.2 ± 0.23
5 | AATATATTGCACCATTGGACCTGAATAATTCTTCCA [CACACA_negctrl_site1071] | 9.37 ± 0.47
6 | AAAAAAAAAAATTCCAGTACACACAATAATACTAAA [XGTACX_site5930] | 8.54 ± 0.37
7 | TAAATAATCATAGTTCTACACACCTATATTGCAAAA [CACACA_site8190] | 8.39 ± 0.4
8 | ATATATATAATATGATGTACTATTTTGATAAAAAAT [XGTACX_site3975] | 8.41 ± 0.13
9 | ATAATAAAACTCAAAGTGCATTAGAATAATTGTAAA | 8.61 ± 0.25
10 | ATTCATAAATATATTTGTACATATTATATATAAATA [XGTACX_site1907] | 8.55 ± 0.4
11 | AAGAACTCATTAATAATGTAATATTTTATAATTTAG [CACACA_negctrl_site321] | 7.93 ± 0.46
12 | TACAATTGTAAAGGCGCACACATATATATATATATA [CACACA_site1392] | 10.3 ± 0.59
13 | GATATTATTGCATATTTACACACGTACTAATTTAAA [CACACA_site8231] | 8.92 ± 0.33
14 | TTTTTATAATAAAAAAATATAACTATATTAAGCCAC [CACACA_negctrl_site555] | 8.54 ± 0.32
15 | ACAATAAATATGTGGTTGCACTTATAATATATTTAT | 8.6 ± 0.38
16 | TATACATATTTCTATTGTACATAAACTAAATCTTCA [XGTACX_site28] | 8.27 ± 0.49
17 | TAATATATAACGTGCACACACACATTTACGTATGAA [CACACA_site1832] | 9.21 ± 0.26
18 | AGCACCCACCAACACACACACACACCCACCCACCCA [CACACA_site8011] | 8.9 ± 0.22
19 | CACAGTGATATAAAAACACACATGAATTAAAATTTC [CACACA_site4999] | 8.2 ± 0.5
20 | TATTTTTATCAATTCACACATAAATATATTTATATG [CACACA_site5547] | 8.38 ± 0.4
21 | GTTAATTATTAAATTTGTACTCATATATATTATATA [XGTACX_site6862] | 8.71 ± 0.38
22 | TCCCTTAATTTTGTGTGTACATATAATATATTTTTA [XGTACX_site2789] | 8.87 ± 0.23
23 | CATACATACAGACACACACACATATTTATATTTATA [CACACA_site6172] | 8.57 ± 0.5

Row | Sequence | gcPBM binding intensity (ln)
24 | GGAATAGTGATATATACACACAAATACATATTTATA [CACACA_site6183] | 8.71 ± 0.49
25 | AATTAATAAGAAAGGTGTACAGAAAAAAAAAAATAT [XGTACX_site2106] | 9.06 ± 0.49
26 | AATTTTGATATATATTGTACGCATTTTTAAATGCCA [XGTACX_site7694] | 8.7 ± 0.38
27 | AAAAGAAATGACAAATTGGATAGATAATAGGGGGTA [GTGCAC_negctrl_site262] | 9.28 ± 0.44
28 | TTTAATAAAATTCTAGTGCAAAAAGGAAAAAACAAA [GTGCAC_site9642] | 9.07 ± 0.45
29 | AATATATAGGAAAAAGTGCAATAAATGAACAAAATA | 9.06 ± 0.26
30 | AAAAAAAAAAAAAATACACACATATATAAATAAATA [CACACA_site6459] | 8.31 ± 0.45
31 | TTATTTACTTATTGCACACATATAAAATATATTTAT [CACACA_site3101] | 9.065 ± 0.021
32 | TTCTTAATTTAAAATTGTACTTAAGTAATACTTATG [XGTACX_site3928] | 8.57 ± 0.34
33 | GAAGTTTTTTAAAGATGTACTTTTTAAAAATAATGT [XGTACX_site1975] | 8.3 ± 0.4
34 | CTATATATAAAATATTGTACTTATTTTTATTACATC [XGTACX_site3963] | 8.48 ± 0.39
35 | TATACATATGTATGCACACATACATACCCATATAAT [CACACA_site5842] | 8.57 ± 0.23
36 | TATTTAAAATATTAAATTTGTAAAGTTCGAGGGAAG [GTGCAC_negctrl_site337] | 8.52 ± 0.48
37 | TTTTCTCAATTTTGGTGTACTTTTTTCTTAACACAT [XGTACX_site8918] | 9.04 ± 0.42
38 | GAAAAAAAAATATCTTGTACTTACATAACTATTGGT [XGTACX_site5326] | 8.28 ± 0.4
39 | AAAGGTTTATCTGATACACACATAAGTGATCAGGTT [CACACA_site6233] | 8.27 ± 0.32
40 | TAAATTAAAAAACATAAACTATTGGAAACGCATTGA [CACACA_negctrl_site935] | 8.62 ± 0.39
41 | ACACAATAAACATTATGTACATATAATGTTCTGTGT [XGTACX_site3381] | 8.3 ± 0.22
42 | AATGATAATCTATTATGTACACATATATTCTTATGT [XGTACX_site4148] | 8.34 ± 0.33
43 | ATTTATGGAAAAAGAACACACAATCAAACAAAAATA [CACACA_site3707] | 8.88 ± 0.61
44 | TTTTTTTTTTTTTGGTGTACCATAGGTAAAATGATT [XGTACX_site8020] | 8.39 ± 0.54
45 | ATATAAATGAATATATGTACATATATATATATATAT [XGTACX_site6361] | 10.1 ± 0.3
